# Test results from PubChem BioAssay AID485297 (National Center for Advancing Translational Sciences (NCATS), 2010).
# Out of some 320,000 compounds screened, about 9,100 (2.8%) were called active. The shares of active, inactive and inconclusive entries below differ from those in the screen. Calls follow the shape of the dose curve; as a rule, active = well fitted activation curve with a large enough effect; inconclusive = small, poorly fitted or top-dose-only effect; inactive = no such curve, though single readings can be large or run the other way. No potency is given beside an inconclusive call; the fits are too rough.
# Experiment: qHTS Assay for Rab9 Promoter Activators; also: nearly all actives have a fitted effect of over 60% in size; as to activation, negative = inhibition: % of control where 0% means no effect
# Details: Huh7 Rab9 promoter-luciferase reporter, luminescence, 24 h; series mostly up to 9.22 µM; activation, negative = inhibition: at the top concentration
# In short: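 Quantitative HTS format; Huh7 Rab9-luciferase reporter cells (1500/well) receive compound 2 h post-plating, incubate 24 h at 37 °C, then get luciferase reagent for 10 min before luminescence reading.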
# Potency is read from the fitted curve at half-maximal effect; tags tell the direction and shape of the fitted curve.
SMILES,Potency,"activation, negative = inhibition"
COc1ccc2nc(-c3ccco3)c(-c3ccco3)nc2c1,"inconclusive [activator, single point]",
Cc1cccc(NC(=O)N2CCc3ccccc3C2)c1C,"inconclusive [activator, partial curve]",
CC(C)(O)C#Cc1ccc(C(=O)Nc2ccc3c(c2)OCO3)s1,"inconclusive [activator, partial curve]",
O=C(NCc1ccccc1)C(c1ccccc1)N(Cc1ccc2c(c1)OCO2)C(=O)Cc1cccs1 (configuration not stated),,inactive: -1.87%
COc1ccc(C2(C)NC(=O)N(CC(=O)Nc3ccc(-c4nc5ccc(C)cc5s4)cc3)C2=O)cc1 (configuration not stated),active: 2.24 µM,
Fc1cccc(Nc2ncnc3c2cnn3-c2ccccc2)c1,"inconclusive [activator, single point]",
COc1ccc(N/N=C(\C#N)C(=N)N2CCCCC2)cc1,active: 2.51 µM,
COc1cccc(-c2csc(NC(=O)C3CC3)n2)c1,"inconclusive [activator, partial curve]",
O=C(NC(=S)Nc1ccc(F)cc1)c1ccc2c(c1)OCCO2,active: 0.501 µM,
O=C(Nc1nc2ccccc2n1CCN1CCOCC1)c1cccc([N+](=O)[O-])c1,,inactive: -2.04% [at 46.1 µM]
COC(=O)c1[nH]c2ccccc2c1NC(=O)/C=C/c1ccc2c(c1)OCO2,,inactive: 4.62%
Cc1ccc(C(=O)NCCCNC(=O)Cc2ccccc2)cn1,,inactive: 4.71%
COc1ccc(/C=C/C(=O)NCCC(=O)N2CCCN(C)CC2)cc1,,inactive: 0.829%
CCCCNC(=O)c1ccc(NC(=O)CC2SC(N3CCCC3)=NC2=O)cc1 (configuration not stated),,inactive: -4.35%
O=C(Nc1ccccc1)O[C@@H]1C[C@H]2CCC(=O)N3CC[C@@H](C1)[C@@H]23,"inconclusive [activator, partial curve]",
COc1ccc(C(=O)NCc2nnc(SCC(=O)Nc3cccc(C(F)(F)F)c3)o2)cc1OC,,inactive: -4.14%
CCN1CCN(CCCOc2ccc(-c3ccccc3)cc2)CC1,"inconclusive [activator, single point]",
CC(=O)C1(C)N(O)C(C)(C)C(c2cccs2)=[N+]1[O-] (configuration not stated),"inconclusive [activator, partial curve]",
CC(C)c1cc(C(=O)NC2CCCCC2)no1,"inconclusive [activator, partial curve]",
COC(=O)c1sc(-c2ccc(Cl)cc2)cc1N,active: 2.51 µM,
COC(=O)C1=C(C)NC(C)=C(C(=O)OC)C1c1ccc(NC(C)=O)cc1,"inconclusive [activator, single point]",
CC(C)(C)c1ccc(C(=O)NCCOc2ccccc2F)cc1,"inconclusive [activator, full curve]",
CC(=O)NC(=S)Nc1sc2c(c1C(N)=O)CCC(C)C2 (configuration not stated),active: 1.58 µM,
Nc1ccc(-c2ccc3ccccc3n2)cc1,active: 1.3 µM,
CN(C(=O)CC1C(=O)NCCN1Cc1c(F)cccc1Cl)C1CCOCC1 (configuration not stated),"inconclusive [activator, partial curve]",
Cc1ccc(O)c(C2=Nc3ccccc3C2(C)C)c1,"inconclusive [activator, single point]",

SMILES,Potency,"activation, negative = inhibition"
Cc1ccnc(NC(=S)NC(=O)c2cncc(Br)c2)c1,"inconclusive [activator, partial curve]",
Cc1cc(C(=O)O)ccc1-c1ccc(CO)o1,,inactive: 9.68%
Cc1ccc(NS(=O)(=O)c2ccc(N/N=C/c3ccncc3)c([N+](=O)[O-])c2)c(C)c1,,inactive: -17.6%
COc1ccc(C(CC(=O)O)N2Cc3ccccc3C2=O)cc1OC (configuration not stated),,inactive: -0.722%
COc1cccc(/C=N/Nc2ccc(Cl)nn2)c1,"inconclusive [activator, single point]",
O=C(Nc1cccc(-c2ccc(N3CCOCC3)nn2)c1)c1ccc(F)cc1F,active: 2.82 µM,
CC1CCN(C(=O)c2cc(-c3ccco3)on2)CC1,active: 2.82 µM,
CC(C)(C)OC(=O)N/N=C\C=C\c1ccc2c(c1)OCO2,active: 1.58 µM,
OCCNNC(=S)NC1CC2C=CC1C2 (configuration not stated),,inactive: -0.36%
Cc1onc(-c2ccc3c(c2)OCO3)c1-c1ccc2[nH]ccc2c1,"inconclusive [activator, single point]",
CCN(CC)CCCNC(=O)c1cc(-c2ccccc2)c(N2CCCCC2)s1,,inactive: -2.83%
COc1ccccc1Oc1ccc(NC(=O)c2ccccc2)cc1,"inconclusive [activator, partial curve]",
CC(=O)c1c(C)[nH]c(C(=O)Nc2ccccn2)c1C,active: 3.16 µM,
Cc1cc2nc(-c3cccnc3SCC(=O)NCc3ccco3)[nH]c2cc1C,active: 3.16 µM,
CC(CCn1cccn1)NC(=O)c1cc(COc2ccc(F)cc2F)on1 (configuration not stated),,inactive: -2.29%
CCOC(=O)c1ccc(-c2ccc(C(=O)Nc3cccnc3)o2)cc1,active: 2.24 µM,
NNc1nc2c(F)cc(F)cc2s1,"inconclusive [activator, partial curve]",
Cn1c(SCc2ccccc2Cl)nc2ccccc21,"inconclusive [activator, full curve]",
CN(C)c1ccc(/C=C/C(=O)c2c(O)c3ccccc3oc2=O)cc1,"inconclusive [activator, single point]",
Cc1ccc(-c2nnc(SCC(=O)Nc3ccccc3F)o2)cc1,"inconclusive [activator, full curve]",
CC(=O)c1ccc(NC(=O)CSc2nc(N)c3cc4c(nc3n2)CCCC4)cc1,"inconclusive [activator, partial curve]",
CC(C)CN(C(=O)c1ccc(S(=O)(=O)N2CCOCC2)cc1)C1CCS(=O)(=O)C1 (configuration not stated),,inactive: 0.805%
COc1ccc(NC(=O)c2cn(-c3ccccc3)nc2-c2cc3ccccc3o2)cc1,,inactive: 15.2%
CCCCOC(=O)Nc1ccc(C(N)=O)cc1,"inconclusive [activator, partial curve]",
Cc1ccnc(NC(=O)Nc2ccc3c(c2)OCO3)c1,active: 0.501 µM,
Cc1nc2ccccc2nc(=O)c1NNc1ccccc1,"inconclusive [activator, partial curve]",
